Test results as given in the RNAGym collection of RNA variant scans (doi:10.1093/nar/gkz1192).
The source gives no read counts; variants with many changes may rest on few reads.

B1: CPEB3 Ribozyme (parent)
chain: UAACAGGGGGCCACAGCAGAAGCGUUCACGUCGCAGCCCCUGUCAGAUUCUGGUGAAUCUGCGAAUUCUGCUGUAUAUCUC

Variants of: B1
Assay: self-cleavage, relative activity (ratio to wild type); higher = more cleavage; in vitro, sequencing
Summary of the method: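 Libraries of CPEB3 self-cleaving ribozyme mutants came from rounds of error-prone PCR and carried barcodes, which DNA sequencing matched to variants. In vitro transcription used T7 RNA polymerase at 37°C for 5 hours, with a further 15 min in DNase I before EDTA stopped the reaction; the ribozymes cleaved during both steps. The RNA was reverse transcribed with template switching and sequenced on Illumina. Relative activity is the cleaved/total read fraction of a variant divided by that of the unmutated ribozyme, averaged over three batches with at least 5 reads.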

Variant | self-cleavage
A18G A35G A47C U54A U60C C62A | 0.17
A18G G19C A28U G30A U67C U76C | 0.05
A18G U41C U49C G63U A65C U78C | 0.08
A18U G19U A28G | 0.13
A18G U26C A28U U31C U58C U80C | 0.03
A18G A20U U54A U67A | 0.96
A18G U26C G33C A64G | 0.09
A18G A28G A45G | 0.24
A18G C62U U69C | 0.13
A18G C23U U67C | 0.1
A18G A45G U74A | 0.68
A18G A56G U76A | 0.25
A18G U51G G52C | 0.57
A18G U25C A45G A47G U60A U74C | 0.2
A18G G24A U25C A45G U60C U72C | 0.17
A18G A21U U26C A56G U58A | 0.05
A18G A45C G55A U72C | 0.23
A18G A28G C32U U48C U66C | 0.06
A18G U26A A28U A35U A45C U67A | 0.05
A18G A21G U51G A65U | 0.09
A18G A21C U41A U49C U69A | 0.27
A18G A45G G46U A56G C62U U78C | 0.11
A18U A20G U25C | 0.06
A18G U41C U58C A64G U74A A75G | 0.23

Variant | self-cleavage
A18U A20U U31A U60C U66C U69G U76C | 0.08
A18U A21G U54C U74C | 0.05
A18G A21G U67A | 0.37
A18G U43C A77G | 0.44
A18G U54A A56U | 0.46
A18U A20G A56G G70A A77G | 0.12
A18G A21G U25C U41C U69A U72A | 0.04
A18U C37A U49C U72C U80A | 0.05
A18U C34U U41A A45U U66C U69A A77U | 0.03
A18U A65U U69A | 0.11
A18G U49C A65C | 0.1
A18U A65U C81A | 0.42
A18G A21U U26A U51C | 0.14
A18G A56U A64U A77G | 0.38
A18G U31A A35U A45U A47G U66C | 0.09
A18G A21G A45G C59U | 0.16
A18G G52U A65G | 0.22
A18G U31C U51A A65G A77G | 0.15
A18U U25A A56G A57G A75G | 0.02
A18G A45G U49C A65G U69A U74C | 0.01
A18G U51C U58C U67A | 0.14
A18G A57C U72A | 0.25
A18U A21G A35G | 0.52
A18G A21G A45G | 0.23

Variant | self-cleavage
A18G U25C U41A | 0.23
A18G A47U A56G U74C | 0.12
A18G U51A U67A | 0.4
A18G U26C U41C A45G U54A U72C | 0.07
A18G A28U U51C | 0.37
A18U A28G A35G A65G U80C | 0.24
A18G U26C A35U U41C U49A U58A | 0.2
A18G A35G G63A | 1.14
A18G U26C A28G G33C A35G | 0.06
A18U C23U U31A U74C | 0.05
A18U A28G U41C A64U G70U U74C | 0.07
A18G A28C U48C U51C U72C | 0.18
A18G U41C G42C A45U A64G | 0.24
A18G A28G C29A U43A | 0.37
A18G U54C U78C | 0.73
A18G U48C G61C U76A A77G | 0.1
A18G G42C A57G A65G | 0.17
A18G A21G U69C U72C | 1.1
A18G U25C U26C C34A A57G | 0.11
A18G U31G U43C U66C U80G | 0.08
A18U A47G U66C U80C | 0.32
A18G A28G A45G U74A | 0.24
A18G A20U C23U U80C | 0.13
A18G A28C A64G U72C | 0.13

Variant | self-cleavage
A18U A45G A56G U72C | 0.44
A18G U43C U69C U78A U80C | 0.56
A18G A28C U72C | 0.3
A18G U41G U48C | 0.15
A18G A57G A65G U72A | 0.14
A18G A35G U41A U54A U60C | 0.41
A18G A57G U69A | 0.45
A18G A35U A45U G55U U72C | 0.17
A18U A20G G24A U66C | 0.21
A18G G63U C68A U69C | 0.4
A18G A45U U80A | 0.47
A18G A45U U80C | 0.59
A18U U25C G42A U49A U60C U66C | 0.05
A18G U60C A64G U67C A77U | 0.32
A18U C34U U51A | 0.1
A18U U26C A35C | 0.18
A18G U26C U51C A57G C68A | 0.06
A18U C38G A56C G70A | 0.07
A18G A21G G42U U51C | 0.06
A18G A64C U80C | 0.16
A18U A20G U48C A57G U72C U78C | 0.08
A18G C38A U76A A77U | 0.08
A18U C23A A45U | 0.28
A18G C59A U72C | 0.08

Variant | self-cleavage
A18U A35G G42A U58C | 0.14
A18U A28G A47G | 0.39
A18U C23A A45U U54C U80A | 0.23
A18G U49A U54C | 0.24
A18U C32U A47G | 0.15
A18U C29G C59A | 0.18
A18G U26C U43A | 0.45
A18U A57G U58A A65G G73A | 0.18
A18U C38U U41C U72A | 0.19
A18G U43A A47G U58C C62A | 0.18
A18G A47G U54C U58A | 0.1
A18G G24A A35G | 0.21
A18G U26G U31C U54C U80C | 0.45
A18G U26A C34G A35U | 0.05
A18G U43C U58C G63A | 0.06
A18U C32U C34A U41A A77G | 0.05
A18G A28G U54G U74A | 0.48
A18G U25C A65G U72C | 0.35
A18G C32A A45G | 0.24
A18U A28G C38A A57G A65G | 0.03
A18G G24A U51A | 0.22
A18G U54C U66C | 0.15
A18G U54C A64G U80C | 0.44
A18U A45U U66C U69C | 0.1

Variant | self-cleavage
A18G U26C A35G U41C U49A G63A C68A | 0.15
A18U A21G C37A A45G G55U U60C | 0.2
A18G A28U U41G | 0.39
A18U A64U U74A | 0.22
A18G U41A U54G G63U U67A | 0.06
A18U A20C G33A U69A U78C | 0.11
A18G U43C A45C A64U U78C | 0.04
A18G U51A U78C | 0.59
A18G A35U U67A U72A | 0.1
A18U A20U A35U G63A | 0.1
A18G U43C A47G C59U U67A | 0.13
A18G G33U G55C U69G | 0.08
A18G U41A U48G U49A G61A | 0.12
A18G U26C A35U U41A U54C U72A U78C | 0.06
A18G A21G A35U U72C U80C | 0.09
A18U C29U A47G U51A A65U U67C | 0.13
A18G U25C U41A A65G | 0.44
A18G G24U C32U A47G A64U | 0.05
A18U A56U U66C | 0.25
A18U A28G C39U | 0.66
A18G A21G U51A A57G U66A | 0.39
A18U G61A U72A | 0.26
A18G G19U C23A U43C U69A | 0.11
A18U A35G U67A U80A | 0.89

Variant | self-cleavage
A18G A28C U31C A57U U60C | 0.03
A18G A28G U58A C59A | 0
A18G A28C U31C C68A | 0.04
A18G A21U U69C | 0.39
A18U C27U U54C A56G A64G | 0.06
A18U C34G U49A | 0.14
A18G U25A A57U U80C | 0.23
A18G A21G A64U | 0.19
A18U U25C C40A C50U | 0.07
A18U G52A A56U | 0.22
A18U G33A C37U U48C U72A U76A | 0.12
A18G C29U A56U | 0.09
A18G A47G U58C | 0.71
A18U U25C U43A | 0.3
A18G U31C A47G U49G U72C U78C | 0.25
A18G U25C U43A A45G U54A U67G U72C | 0.04
A18G G33C U58C | 0.12
A18U A21G U25C A45G U49A U60C | 0.06
A18G A56U A77G | 0.35
A18U A20U C62A | 0.14
A18U C50A A56G C59U | 0.14
A18G A21G A56G U74A | 0.41
A18G U69A U80C | 0.47
